In article PMC4336329 (PLoS ONE, 2015):
The whole screen tested about 310,000 compounds, of which about 2,200 (0.71%) showed an effect of 50% or more. Effects have a minus sign here. The list shows a part of the results.

target: human ether-à-go-go-related gene (hERG) potassium channel (human, UniProt Q12809); experiment: primary screen, population patch clamp on CHO cells stably expressing hERG
Sequence (Q12809 whole entry, looked up): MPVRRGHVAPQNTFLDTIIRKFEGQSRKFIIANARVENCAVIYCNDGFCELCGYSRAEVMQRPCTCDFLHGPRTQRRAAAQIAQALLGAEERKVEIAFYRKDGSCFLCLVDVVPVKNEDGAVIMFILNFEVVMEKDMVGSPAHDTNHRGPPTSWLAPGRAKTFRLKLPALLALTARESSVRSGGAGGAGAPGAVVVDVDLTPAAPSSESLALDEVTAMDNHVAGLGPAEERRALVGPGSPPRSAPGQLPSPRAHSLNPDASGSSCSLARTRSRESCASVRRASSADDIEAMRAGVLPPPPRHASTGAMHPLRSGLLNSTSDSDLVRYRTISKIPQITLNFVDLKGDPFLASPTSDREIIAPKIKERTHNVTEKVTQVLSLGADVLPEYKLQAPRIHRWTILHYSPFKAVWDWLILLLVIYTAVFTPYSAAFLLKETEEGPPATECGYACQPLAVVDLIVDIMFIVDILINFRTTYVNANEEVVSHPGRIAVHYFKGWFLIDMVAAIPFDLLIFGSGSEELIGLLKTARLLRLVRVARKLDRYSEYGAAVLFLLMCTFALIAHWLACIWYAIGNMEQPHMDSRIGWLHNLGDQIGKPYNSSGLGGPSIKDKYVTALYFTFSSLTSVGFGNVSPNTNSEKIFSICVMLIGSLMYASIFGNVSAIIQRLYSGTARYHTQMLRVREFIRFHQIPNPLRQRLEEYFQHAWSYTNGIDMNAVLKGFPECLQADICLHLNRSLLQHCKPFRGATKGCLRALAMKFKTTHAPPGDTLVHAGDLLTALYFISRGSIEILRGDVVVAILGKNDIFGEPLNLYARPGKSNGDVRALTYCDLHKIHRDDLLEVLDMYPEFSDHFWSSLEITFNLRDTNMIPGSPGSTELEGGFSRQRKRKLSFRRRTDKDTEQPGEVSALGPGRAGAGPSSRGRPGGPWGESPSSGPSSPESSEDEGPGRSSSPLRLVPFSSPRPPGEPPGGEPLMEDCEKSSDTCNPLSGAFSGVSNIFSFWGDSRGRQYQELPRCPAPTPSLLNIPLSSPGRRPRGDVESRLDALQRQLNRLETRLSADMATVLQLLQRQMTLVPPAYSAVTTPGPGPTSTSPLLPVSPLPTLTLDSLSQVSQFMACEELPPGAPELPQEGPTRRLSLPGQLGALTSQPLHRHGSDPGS

Going from `O=C(Nc1c(C(=O)O)[nH]c2ccccc12)c1cccc(C(F)(F)F)c1` to `Cc1ccccc1[C@@]1(C)ON(c2ccccc2C(F)(F)F)C1=O`, the “hERG current change (%, negative = inhibition) at 1uM” value falls from 9.75% to 7.64%.

Going from `COC(=O)[C@H](CCSC)NC(=O)Nc1ccc(C)c(C)c1` to `CSCCC(NC(N)=O)C(=O)Nc1ccc(C)cc1` (centres unmarked), the “hERG current change (%, negative = inhibition) at 1uM” value rises from -45.3% to 15.3%.

First: O=C(c1ccc2c(c1)OCO2)N(CC1CCCO1)C1(C(=O)NC2CCCC2)CCCCC1 (centres unmarked)
Second: CCC1Sc2ccccc2N(CC(=O)NC2CCCCC2)C1=O (centres unmarked)
The “hERG current change (%, negative = inhibition) at 1uM” value of the first is higher: 14.8% for the first, 2.42% for the second.

Going from `Cc1ccc2c(c1)C1CN(C)CCC1N2C(=O)/C=C/c1ccc2c(c1)OCO2` (centres unmarked) to `CCNC(=O)C1CC(=O)N(Cc2ccc3c(c2)OCO3)C(=Nc2ccc(OCC)cc2)S1` (centres unmarked), the “hERG current change (%, negative = inhibition) at 1uM” value rises from -1.56% to 1.71%.

Compared with `Cc1ccccc1C(=O)Nc1nnc(SCC(=O)NC2CC2)s1`, `O=C(NC1CCN(C(=O)Nc2ccccc2Cl)CC1)c1ccco1` is higher in “hERG current change (%, negative = inhibition) at 1uM” value: 5.37% for the first, 11.7% for the second.

First: O=C(CNC(=O)c1ccc(Br)o1)NCC1CCCO1 (centres unmarked)
Second: O=C(CN1C(=O)COc2ccccc21)NCCCN1CCCCC1
The “hERG current change (%, negative = inhibition) at 1uM” value of the first is lower: -1.84% for the first, 12.1% for the second.

Compared with `Cc1ccc2nc(N(CCCN(C)C)C(=O)COc3ccc(Cl)cc3)sc2c1.Cl`, `CCOC(=O)Cc1cc(=O)n(-c2nc3ccccc3s2)[nH]1` is lower in “hERG current change (%, negative = inhibition) at 1uM” value: 7.58% for the first, 0.918% for the second.

Compared with `CC(=O)Nc1ccc(CN2CCC(n3nccc3NC(=O)CCc3ccccc3)CC2)cc1`, `O=C1CCN(S(=O)(=O)c2ccccc2)CCN1CCOCc1ccc(Cl)cc1` is lower in “hERG current change (%, negative = inhibition) at 1uM” value: 11.7% for the first, 5.64% for the second.

Going from `Cc1c(Cl)cccc1NC(=O)C1CC2CCC1C2` (centres unmarked) to `O=C(NC1=NCCS1)c1cccc(S(=O)(=O)N2CCOCC2)c1`, the “hERG current change (%, negative = inhibition) at 1uM” value falls from 11.1% to 6.73%.

Compared with `Cc1ccc(NC(=O)c2ccc(S(=O)(=O)N3CCCCCC3)cc2)nc1`, `O=C(Cc1c(F)cccc1Cl)Nc1cc(S(=O)(=O)N2CCCCC2)ccc1N1CCOCC1` is lower in “hERG current change (%, negative = inhibition) at 1uM” value: 7.73% for the first, -27.3% for the second.

Going from `CNC(=O)Nc1cc(C(F)(F)F)cc(C(F)(F)F)c1` to `Cc1cc(NC(=O)c2ccoc2C)no1`, the “hERG current change (%, negative = inhibition) at 1uM” value falls from 12.7% to 6.87%.

Going from `C/C(CC(=O)NCCCN1CCOCC1)=N\NC(=O)COc1cccc2ccccc12` to `O=C(Cc1coc2ccc3ccccc3c12)N1CCCC1`, the “hERG current change (%, negative = inhibition) at 1uM” value rises from 5.72% to 14.6%.

Compared with `CC(C)=C1SC(N2CCN(Cc3ccccc3)CC2)=NC1=O`, `c1ccc(C(c2ccccc2)N2CCN(c3nc4ccccc4n4cnnc34)CC2)cc1` is lower in “hERG current change (%, negative = inhibition) at 1uM” value: 6.15% for the first, 5.48% for the second.

Going from `O=C1CCC(=O)N1CC(=O)N1c2ccccc2Sc2ccccc21` to `O=C1CC(c2ccccc2Cl)=NN(c2ncnc3ccccc23)C1=O`, the “hERG current change (%, negative = inhibition) at 1uM” value rises from 10.1% to 14.8%.

Compared with `Cc1ccc(S(=O)(=O)N2CC=C(c3c(C)n(C)c4ccccc34)CC2)cc1`, `NC(=O)C1CCN(c2oc(-c3ccccc3)nc2S(=O)(=O)c2ccc(Br)cc2)CC1` is lower in “hERG current change (%, negative = inhibition) at 1uM” value: 14.1% for the first, 1.61% for the second.

Going from `COc1ccc(CN(CC(=O)NC2CCCC2)C(=O)CCC(=O)Nc2nccs2)cc1` to `CCN(C(=O)CSc1ncccc1C(=O)O)C1CCCCC1`, the “hERG current change (%, negative = inhibition) at 1uM” value rises from 9.78% to 22.2%.

Compared with `CC(=O)Nc1ccc(OCC(O)CN2CCCCC2C)cc1.Cl` (centres unmarked), `CCS(=O)(=O)c1ncc(Cl)c(C(=O)Nc2ccc(S(=O)(=O)N3CCCC(C)C3)cc2)n1` (centres unmarked) is lower in “hERG current change (%, negative = inhibition) at 1uM” value: 13.2% for the first, 13% for the second.

First: COc1cccc(CNC(=O)c2ccncc2)c1
Second: Cc1ccccc1OCCOC(=O)c1c(-c2ccccc2)noc1C
The “hERG current change (%, negative = inhibition) at 1uM” value of the first is higher: 18.6% for the first, 7.11% for the second.

Going from `CC(C)(C)N(CC#CCC1(O)c2ccccc2-c2ccccc21)CCO` to `C=C(C(=O)c1ccccc1)C(C)C(=C)C(=O)c1ccccc1`, the “hERG current change (%, negative = inhibition) at 1uM” value falls from 16.9% to 13.4%.

First: COc1ccc(CCNC(=O)CSc2nnnn2Cc2ccc3c(c2)OCO3)cc1OC
Second: Cc1cc(-n2nc(C)cc2C)nc(NS(=O)(=O)c2ccccc2Cl)n1
The “hERG current change (%, negative = inhibition) at 1uM” value of the first is lower: 3.77% for the first, 14% for the second.

Going from `CCc1ccccc1Nc1nc(N)nc(COC(=O)CCNS(=O)(=O)c2ccccc2)n1` to `CCCOc1ccc(N2C(=O)CC(SCc3nc4ccccc4[nH]3)C2=O)cc1` (centres unmarked), the “hERG current change (%, negative = inhibition) at 1uM” value falls from 5.16% to -7.42%.

Compared with `COc1cccc(OC2OC3COC(C)(C)OC3C(O)C2NC(C)=O)c1` (centres unmarked), `CCOC(=O)C1(Cc2cccc(F)c2)CCN(C(=O)Cn2cnnn2)CC1` is higher in “hERG current change (%, negative = inhibition) at 1uM” value: 7.13% for the first, 8.16% for the second.

First: O=[N+]([O-])c1ccc(NCCOc2ccccc2Cl)nc1
Second: CCCCn1c(=O)c(C(C)=O)c(O)c2ccccc21
The “hERG current change (%, negative = inhibition) at 1uM” value of the first is higher: 10.7% for the first, 5.59% for the second.

Going from `COC(=O)Cn1c(C(=O)N2CCCC2)cc2c1C[C@H]1CN(C(=O)c3ccccc3)[C@@](Cc3ccc(F)cc3)(C(=O)OC)[C@@H]21` to `CCOC(=O)N1CCN(C(=O)c2c[nH]c3ccc(S(=O)(=O)N(C)c4ccc(OCC)cc4)cc3c2=O)CC1`, the “hERG current change (%, negative = inhibition) at 1uM” value rises from -12.9% to -8.3%.

Compared with `Cc1cc(C(=O)N(C)C2CCCCC2)no1`, `CCOC(=O)c1c(NC(=O)CN2CCCCC2)sc(C)c1C` is higher in “hERG current change (%, negative = inhibition) at 1uM” value: 8.87% for the first, 12.4% for the second.

First: COc1nc(N=C(N)N)nc2c(C)cccc12
Second: CCCCn1c(N)c(N(CC(C)C)C(=O)c2oc3ccc(Br)cc3c2C)c(=O)[nH]c1=O
The “hERG current change (%, negative = inhibition) at 1uM” value of the first is lower: -1.54% for the first, 0.954% for the second.

First: CNC(=O)c1c(NC(=O)C2=COCCO2)sc(C)c1C
Second: O=C(O)/C=C/C(=O)Nc1ccc2c(c1)NC(=O)CO2
The “hERG current change (%, negative = inhibition) at 1uM” value of the first is higher: 18.6% for the first, 10.4% for the second.

First: N#Cc1ccc(C23CC4(C2)[C@H](CN(Cc2ccc(-c5ccccc5)cc2)[C@@H]4c2ccccc2)C3c2ccccc2)cc1 (some centres unmarked)
Second: Cc1oc2c(CN3CCOCC3)c(O)ccc2c(=O)c1-c1ccc(Br)cc1
The “hERG current change (%, negative = inhibition) at 1uM” value of the first is higher: 12.7% for the first, 4.7% for the second.
